The other results are listed elsewhere or left out.
B1: chr16:70572763:70572864:+|3pUTR|ENSG00000189091|msi1|total|mutant (ssRNA)
RNA: GGGAGUUCUACAGUCCGACGAUCUCUGCAGCACCCAUCUCAGGUGGGUUCCAGAGGGCCUUCCGGGUAUAAUGAGAGCCUGUCCGGUGGAAGAGGCCCAGUUCCAGAAAUGUUCCAGCCCACCCCUGAGAAUUCCUCCUGUUUCAACAGAGGAUUGAGCAUCA
B2: ENSG00000170471:stop:overlap|stop_codon|ENSG00000170471|stop_codon|NA|stop_codon (ssRNA)
RNA: GGGAGUUCUACAGUCCGACGAUCUGGAGCCAGAGUUUUAUACUUCACUUUUCCAGGAGGUUGGACUCAAGAACUGCAGUUCUUAGACCACUGAAUUUCUAAGACUGUUGAACUCCAGUUUGGGAACUAUAACACAGCAGAACACAACAGAGGAUUGAGCAUCA
B3: chr21:30319405:30320035:-|CDS|ENSG00000197683|control|control|control (ssRNA)
RNA: GGGAGUUCUACAGUCCGACGAUCGAGGUAUGUGUCCAGCGGCUGUCGUCCACUGAGGCCGCUGCUCAAUAGUUACCAGCCCAUAGGAGACUGUGUGCCCAAUGCCUAUCGCCCCCAAUUCUGCUUGUCCAAGAGUUGCCAGCCCAACAGAGGAUUGAGCAUCA
B4: chr10:116062369:116062470:-|3pUTR|ENSG00000151892|msi1|total|mutant (ssRNA)
RNA: GGGAGUUCUACAGUCCGACGAUCCUUUUUUCACUUCAAAAUGUUUUCAAGGGAAAUUCAGCAGACACCCAACUGUAUUUAAUCCGUGAAAAGAUCUAUAAAGACUCUUACUUUGAAUAAACACAUUAAGUAAGUGUGUCAAAACAACAGAGGAUUGAGCAUCA
B5: ENSG00000198589:be:win_2601|CDS|ENSG00000198589|bound_else_gene|NA|bound_elsewhere_windowed (ssRNA)
RNA: GGGAGUUCUACAGUCCGACGAUCAGAAUGGAUGCUUUCUCUCUGCUAUUUUAAUCCUAAGAAUUCAGAUGAGCAAAAGAUAACAGAAAUGGUAUACGCCAUAUUCAGAAUCCUGCUUUACCAUGCAGUCAAAUAUGAGUGGGGCAACAGAGGAUUGAGCAUCA
B6: chr19:5611119:5611630:-|CDS|ENSG00000130254|control|control|control (ssRNA)
RNA: GGGAGUUCUACAGUCCGACGAUCGCCUCUAGCGAGGAGCUCGCAGAAGCACCCACGGAAGCCCCAAGCCCAGAAGCCAGAGAUAGCAAAGAAGACGGGAGGAAGUUUGAUUUUGACGCUUGUAAUGAAGUCCCUCCGGCUCCUCAACAGAGGAUUGAGCAUCA
B7: chr17:15229982:15230086:-|3pUTR|ENSG00000109099|msi1_unk|FALSE|overlapping (ssRNA)
RNA: GGGAGUUCUACAGUCCGACGAUCUCAUAAAGCCUUCAUCACUCCCACAUUUUUCUUACGGUCGGAGCAUCAGAACAAGCGUCUAGACUCCUUGGGACCGUGAGUUCCUAGAGCUUGGCUGGGUCUAGGCUGUUCUGUGCCUCCCAACAGAGGAUUGAGCAUCA
B8: chr15:38485071:38485172:+|3pUTR|ENSG00000171262|unk|FALSE|unique (ssRNA)
RNA: GGGAGUUCUACAGUCCGACGAUCUUGCCUCACCUGUAUUGCUGUGGAUGUGUUUUGUGGGUUUUUCAUUCGAUUUUACAAAAUAGGGAAAGGCACUUCCAGUUGUAUUUAGUAGGCAGUUGUUGUGAAUCAUUUUUUUCUCUUCAACAGAGGAUUGAGCAUCA
B9: ENSG00000070961:be:win_4251|3pUTR|ENSG00000070961|bound_else_gene|NA|bound_elsewhere_windowed (ssRNA)
RNA: GGGAGUUCUACAGUCCGACGAUCGUACUAAAUUUUUGCCUACAAUUUACCUUGUUAAAUAUUGUAGAUAAAUUGCUAAUACUAAUAGCCAAAUAGAUAACACUAAUGCUUUGUUUAAAAAAACGAAAAAAACAAAACAAAACACAACAGAGGAUUGAGCAUCA
B10: chr1:28742582:28742694:+|CDS|ENSG00000198492|unk|total|mutant (ssRNA)
RNA: GGGAGUUCUACAGUCCGACGAUCAGCAACGGAGAGCCCCACUUCCUACCAGAUGCAAUGUUUGGGCAACCAGGAGCCCCCGGCCGCACUCCAUUUCUUGGUCAGCAUGGUUUUAAUUUCUUUCCCAGUGGGAUUGACUUCUCACAACAGAGGAUUGAGCAUCA
B11: chr19:39385628:39385990:-|three_prime_utr|ENSG00000006712|control|control|control (ssRNA)
RNA: GGGAGUUCUACAGUCCGACGAUCGUCCCAGGGCAUUCAGGGCUGGUUCAGACACCAUUAUUGUGAGCAGCAAAGCACUUUUCUAGUGGUCUGUUUGUGAGCCUUUCACUUGUUUGUUCCCCACCCCCAAACCUUUGCUGUUAACAACAGAGGAUUGAGCAUCA
B12: chr5:82277714:82277885:-|CDS|ENSG00000186468|unk|total|mutant (ssRNA)
RNA: GGGAGUUCUACAGUCCGACGAUCAACUAAAAUAUUUAAUUUUCCGGCAAGUGUCGUGGACUUCGUACUGCCCGGAAGCUCCGCCGUCACCGACGAGACCAGAAGUGGCAUGAUAAACAGUAUAAGAAAGCUCAUUUGGGCACACAACAGAGGAUUGAGCAUCA
B13: chr1:193029531:193029688:-|CDS|ENSG00000116750|unk|FALSE|unique (ssRNA)
RNA: GGGAGUUCUACAGUCCGACGAUCUUGAUAUCUUCACUUUUAUAUUUUAUAGGUAAUUAAUAAUGCUUGUGCUACUCAAGCCAUAGUGAGUGUGUUACUGAACUGUACCCACCAGGAUGUCCAUUUAGGCGAGACAUUAUCAGACAACAGAGGAUUGAGCAUCA
B14: chr1:42176760:42176861:-|3pUTR|ENSG00000198815|msi1|FALSE|bound_elsewhere (ssRNA)
RNA: GGGAGUUCUACAGUCCGACGAUCGUCGCUCAGAUGUCCUUUGAAGUGGGAGGGAAUCAAUCCGGGGAUAAUUUCAAAUGGAAUAGAGUAUUUUGAUAUUGUUCAUUCAGAGGGUGAUGUGUACAUAUCUAUAUUGUAUAUAUGCAACAGAGGAUUGAGCAUCA

What follows are binders tested against MSI1 full-length (mouse, UniProt Q61474 1-362) (assay: nsRBNS (natural sequence RNA bind-n-seq); RBNS binding buffer (assumed for nsRBNS): 25 mM Tris pH 7.5, 150 mM KCl, 3 mM MgCl2, 0.01% Triton X-100, 500 ug/ml BSA, 20 U/ml SUPERase-In, 4 C; UNK is unkempt and MSI1 is Musashi-1; names of the RNAs are library labels; protein concentration not given here; high values mean tight binding).
UniProt Q61474, sequence (Q61474 whole entry): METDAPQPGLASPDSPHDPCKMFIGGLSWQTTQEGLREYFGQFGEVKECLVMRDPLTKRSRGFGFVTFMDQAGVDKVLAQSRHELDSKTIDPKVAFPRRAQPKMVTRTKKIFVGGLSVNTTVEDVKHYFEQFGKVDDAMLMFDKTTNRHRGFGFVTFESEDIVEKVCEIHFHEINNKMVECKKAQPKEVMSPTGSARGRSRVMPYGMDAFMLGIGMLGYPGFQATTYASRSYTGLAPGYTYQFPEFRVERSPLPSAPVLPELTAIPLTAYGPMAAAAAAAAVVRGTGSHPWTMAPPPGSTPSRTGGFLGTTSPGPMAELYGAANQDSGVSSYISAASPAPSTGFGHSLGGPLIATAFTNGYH

Binder	binding signal
B1	0.294 enrichment R
B2	0.335 enrichment R
B3	0.523 enrichment R
B4	0.276 enrichment R
B5	0.326 enrichment R
B6	0.436 enrichment R
B7	0.555 enrichment R
B8	1.7 enrichment R
B9	2.54 enrichment R
B10	0.445 enrichment R
B11	0.629 enrichment R
B12	0.658 enrichment R
B13	30 enrichment R
B14	0.966 enrichment R
